# Assay results taken from PubChem BioAssay (NCATS).
# Values joined by “and” are separate entries in the source; they are usually repeats but may differ in a detail not shown here. Equal values may be shown once. This list was built around the results that the source calls inconclusive (neither active nor inactive); the mix of calls is not that of the screen. For some assays here: Where the call is inconclusive, the potency comes from a doubtful curve fit. A structure can be active in one record and inactive in another. Active and inactive are the calls of the source. Unless noted, calls come from the whole dose curve; as a rule, active = well fitted curve in the direction sought with a large enough effect; inconclusive = small, poorly fitted or top-dose-only effect, or another doubt; inactive = no such curve, though single readings can be large; an effect the other way counts as inactive or inconclusive.
# Key:
# [1] = Viability qHTS for spleen associated tyrosine kinase inhibitor (SYKi) drug resistant MV4-11 cells (AID 1963824); note: nearly all actives have a fitted effect of over 35% in size
# Outline: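 CellTiter-Glo luminescence, read 10 min after reagent addition, reports viability after a 72 hr compound exposure. Cells are an MV4-11 line made resistant to SYK inhibition, seeded at 500 per well onto compound-containing plates.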
# [2] = Cellular viability qHTS for adrenocortical cancer (ACC) cell line SW-13 (AID 1963989); conditions: SW-13 ACC cells viability, CellTiter-Glo, 48 h; activity (max response): stronger effect = lower value; note: nearly all actives have a fitted effect of over 65% in size;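 for activity (max response): cells grown in serum-free medium with ITS supplement; % is set by controls: 0 for no effect and ±100 for the full control effect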
# Outline: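 Luminescent ATP read-out (CellTiter-Glo, 20 min at room temperature) measured metabolically competent SW-13 cells after 48 h compound treatment. Final concentrations spanned up to 46 uM; bortezomib served as positive control.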
# [3] = Quantitative highthroughput screen to assess conditional lethalithy of P12 Ichikawa cells grown in RPMI1640 with untreated serum (RPMI+s) (AID 1963881); conditions: Potency: viability; note: nearly all actives have a fitted effect of over 35% in size;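 for Viability: 100% = DMSO wells and 0% = empty wells without cells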
# Outline: (§1)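 Each medium arm—HPLM with 10% dialyzed FBS, or RPMI1640 with 5 mM glucose and 10% untreated or dialyzed FBS—was screened against an 11-point, 3-fold compound titration for 48 h at 37 °C, with CellTiter-Glo luminescence as endpoint.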
# [4] = Quantitative highthroughput screen to assess conditional lethalithy of SEM cells grown in Human Plasma-Like Medium with dialyzed fetal bovine serum (HPLM+ds) (AID 1963882); note: nearly all actives have a fitted effect of over 35% in size
# Outline: as §1
# [5] = Quantitative highthroughput screen to assess conditional lethalithy of NOMO1 cells grown in Human Plasma-Like Medium with dialyzed fetal bovine serum (HPLM+ds) (AID 1963878); note: nearly all actives have a fitted effect of over 35% in size;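 for Viability: 100% = DMSO wells and 0% = empty wells on each plate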
# Outline: as §1
# [6] = Quantitative highthroughput screen to assess conditional lethalithy of P12 Ichikawa cells grown in RPMI1640 with dialyzed fetal bovine serum (RPMI+ds) (AID 1963880); conditions: Potency: P12-Ichikawa viability; note: nearly all actives have a fitted effect of over 35% in size
# Outline: as §1
# [7] = Quantitative highthroughput screen to assess conditional lethalithy of SEM cells grown in RPMI1640 with dialyzed fetal bovine serum (RPMI+ds) (AID 1963884); note: nearly all actives have a fitted effect of over 35% in size;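 for Viability: 100% = DMSO control wells and 0% = empty wells without cells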
# Outline: as §1
# [8] = Cellular viability qHTS for adrenocortical cancer (ACC) cell line NCI-H295R (AID 1963990); conditions: CellTiter-Glo ATP luminescence, 48 h; activity change, negative = viability loss: at 46.1 µM (top of the series); note: nearly all actives have a fitted effect of over 60% in size;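 for activity change, negative = viability loss: 0% = DMSO only wells and -100% = full killing with cytotoxic reference compound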
# Outline: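 IC50 and maximal efficacy derive from four-parameter logistic modelling of titration curves, with reads scaled between DMSO-only wells (0%) and doxorubicin hydrochloride (100% inhibition). Compounds spanned up to 46 uM over 48 h.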
# [9] = biological target: Polyprotein P1234 (Chikungunya virus (strain S27-African prototype)) (UniProt Q8JUX6); test: Selectivity profile for inhibitors of NSP2Pro chikungunya virus (CHIKV): Endogenous NS2/3 peptide Counterscreen (AID 1964103; calls by dose curve; note: nearly all actives have a fitted effect of over 55% in size)
# Sequence of UniProt Q8JUX6 (Q8JUX6 whole entry, looked up): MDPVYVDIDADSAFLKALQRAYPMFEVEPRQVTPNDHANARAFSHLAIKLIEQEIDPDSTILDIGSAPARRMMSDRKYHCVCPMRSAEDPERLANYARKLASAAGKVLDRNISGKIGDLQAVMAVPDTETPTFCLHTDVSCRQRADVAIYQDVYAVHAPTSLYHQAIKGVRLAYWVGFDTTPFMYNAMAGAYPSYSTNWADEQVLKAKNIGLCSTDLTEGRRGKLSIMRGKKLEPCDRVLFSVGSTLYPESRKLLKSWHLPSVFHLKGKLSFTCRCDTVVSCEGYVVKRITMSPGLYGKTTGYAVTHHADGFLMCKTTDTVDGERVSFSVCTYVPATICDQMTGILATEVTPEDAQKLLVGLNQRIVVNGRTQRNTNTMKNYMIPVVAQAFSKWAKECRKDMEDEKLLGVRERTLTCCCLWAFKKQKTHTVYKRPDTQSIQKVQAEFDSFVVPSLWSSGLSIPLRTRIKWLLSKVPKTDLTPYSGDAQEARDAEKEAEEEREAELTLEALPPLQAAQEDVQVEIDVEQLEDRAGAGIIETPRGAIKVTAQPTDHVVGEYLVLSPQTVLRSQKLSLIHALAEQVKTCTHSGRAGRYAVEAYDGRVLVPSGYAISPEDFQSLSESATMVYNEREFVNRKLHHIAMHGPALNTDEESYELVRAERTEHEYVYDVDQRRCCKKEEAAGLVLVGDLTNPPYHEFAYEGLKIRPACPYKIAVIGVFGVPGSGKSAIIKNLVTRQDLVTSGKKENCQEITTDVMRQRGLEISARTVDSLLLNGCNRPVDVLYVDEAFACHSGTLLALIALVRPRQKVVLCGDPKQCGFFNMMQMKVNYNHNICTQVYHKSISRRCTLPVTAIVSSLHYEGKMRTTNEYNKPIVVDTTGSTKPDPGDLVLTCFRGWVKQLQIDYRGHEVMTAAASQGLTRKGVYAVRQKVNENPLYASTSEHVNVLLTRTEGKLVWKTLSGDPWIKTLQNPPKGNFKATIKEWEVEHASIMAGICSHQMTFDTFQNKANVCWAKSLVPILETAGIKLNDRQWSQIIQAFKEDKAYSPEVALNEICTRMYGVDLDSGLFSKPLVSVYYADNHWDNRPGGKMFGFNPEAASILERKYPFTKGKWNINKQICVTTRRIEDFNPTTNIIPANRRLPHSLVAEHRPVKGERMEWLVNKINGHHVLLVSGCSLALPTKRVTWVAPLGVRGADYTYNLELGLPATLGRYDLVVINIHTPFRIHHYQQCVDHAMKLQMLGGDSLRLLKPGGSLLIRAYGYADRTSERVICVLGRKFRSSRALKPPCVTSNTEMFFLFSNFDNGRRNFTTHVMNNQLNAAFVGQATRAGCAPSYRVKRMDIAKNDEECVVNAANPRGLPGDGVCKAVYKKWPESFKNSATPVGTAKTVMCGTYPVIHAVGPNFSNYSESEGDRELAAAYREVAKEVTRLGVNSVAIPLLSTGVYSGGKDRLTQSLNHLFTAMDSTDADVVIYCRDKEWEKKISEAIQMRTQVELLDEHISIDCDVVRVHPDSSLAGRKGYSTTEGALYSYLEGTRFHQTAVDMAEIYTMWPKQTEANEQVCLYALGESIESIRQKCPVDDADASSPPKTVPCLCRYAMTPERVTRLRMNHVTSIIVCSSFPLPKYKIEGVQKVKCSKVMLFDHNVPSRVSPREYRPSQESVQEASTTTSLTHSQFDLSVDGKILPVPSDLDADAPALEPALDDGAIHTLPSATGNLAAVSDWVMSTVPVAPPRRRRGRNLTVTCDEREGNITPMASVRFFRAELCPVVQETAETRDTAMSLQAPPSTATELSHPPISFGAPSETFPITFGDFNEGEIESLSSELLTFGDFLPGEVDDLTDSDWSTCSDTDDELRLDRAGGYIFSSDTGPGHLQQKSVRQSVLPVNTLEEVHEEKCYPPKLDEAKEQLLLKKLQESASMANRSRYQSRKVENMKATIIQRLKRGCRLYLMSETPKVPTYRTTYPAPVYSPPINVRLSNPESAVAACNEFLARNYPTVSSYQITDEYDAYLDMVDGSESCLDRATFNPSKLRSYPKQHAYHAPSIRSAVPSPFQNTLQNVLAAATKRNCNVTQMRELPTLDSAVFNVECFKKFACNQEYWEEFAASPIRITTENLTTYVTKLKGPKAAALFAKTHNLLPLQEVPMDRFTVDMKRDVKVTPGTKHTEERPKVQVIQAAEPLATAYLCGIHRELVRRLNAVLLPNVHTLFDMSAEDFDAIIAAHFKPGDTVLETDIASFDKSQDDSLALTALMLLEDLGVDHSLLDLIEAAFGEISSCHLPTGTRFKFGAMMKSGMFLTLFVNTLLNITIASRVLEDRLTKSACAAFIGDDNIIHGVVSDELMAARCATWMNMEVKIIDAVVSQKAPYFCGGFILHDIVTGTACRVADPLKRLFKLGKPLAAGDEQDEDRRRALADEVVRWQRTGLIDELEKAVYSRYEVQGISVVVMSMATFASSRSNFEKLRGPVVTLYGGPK
# [10] = tested on: Hepatitis C virus NS3/4A protease; test: Selectivity profile for inhibitors of NSP2Pro chikungunya virus (CHIKV): NS34A-HCV Counterscreen (AID 1964106; calls by dose curve; note: nearly all actives have a fitted effect of over 55% in size); conditions: activity change, negative = inhibition: at 50.9 µM (top of the series) unless noted
# [11] = Quantitative highthroughput screen to assess conditional lethalithy of SEM cells grown in RPMI1640 with unreated serum (RPMI+s) (AID 1963883); note: nearly all actives have a fitted effect of over 35% in size
# Outline: as §1
# Potency is the fitted concentration of half-maximal effect; tags give direction and shape of the fitted curve.
compound,measurement,setting,value
CC[N+]1(CC)CCC(OC(=O)C(O)(c2ccccc2)c2ccccc2)C1 (configuration not stated),Potency,[1],inactive
same,activity (max response),[2],inactive: 5.92%
COC1C=CC23c4cc5c(cc4COC2(O)CN(C)C3C1)OCO5 (configuration not stated),Potency,[1],inactive
C/C=C(\C)C(=O)OC1CC2C(CC=C3CC(OC4CC(OC)C(OC5CC(OC)C(OC6OC(C)C(OC7OC(CO)C(O)C(O)C7O)C(OC)C6O)C(C)O5)C(C)O4)CCC32C)C2(O)CCC(C(C)=O)C12C (configuration not stated),"viability, % of control",[1],inactive: 85.3% [at 9.25 µM]
O=C(CCCCl)c1ccc(F)cc1,Potency,[1],inactive
CCOP(=S)(OCC)O/N=C(\C#N)c1ccccc1,Potency,[1],"inconclusive: 13.3 µM [cytotoxic, partial curve, poor fit]"
same,activity (max response),[2],inactive: 0.816%
CN(C)[C@@H]1C(=O)C(C(N)=O)=C(O)[C@@]2(O)C(=O)C3=C(O)c4c(O)cccc4[C@@](C)(O)[C@H]3C[C@@H]12,Potency,[1],"inconclusive: 33.5 µM [cytotoxic, single point]"
same,Potency,[3],inactive
same,Potency,[4],inactive
Cn1c(CCCC(=O)O)nc2cc(N(CCCl)CCCl)ccc21,Potency,[1],inactive
same,Potency,[5],inactive
same,Potency,[6],"inconclusive: 37.2 µM [cytotoxic, single point]"
same,Potency,[3],"inconclusive: 37.2 µM [cytotoxic, single point]"
same,Potency,[7],"inconclusive: 29.6 µM [cytotoxic, single point]"
same,Potency,[8],"inconclusive: 32.6 µM [cytotoxic, single point]"
same,Potency,[9],"inconclusive: 18.3 µM [inhibitor, partial curve]"
same,Potency,[10],"inconclusive: 0.013 µM [inhibitor, full curve, poor fit]"
O=c1[nH]c2ccccc2n1CCCN1CCC(n2c(=O)[nH]c3cc(Cl)ccc32)CC1,Potency,[1],"inconclusive: 23.7 µM [cytotoxic, partial curve] and active: 18.6 µM"
same,Potency,[4],inactive
same,Potency,[7],inactive
same,Potency,[2],"inconclusive: 18.4 µM [cytotoxic, single point]"
FC(F)(F)c1cccc(C2=CCN(CCc3ccc4ccccc4c3)CC2)c1,Potency,[1],"inconclusive: 29.9 µM [cytotoxic, single point]"
same,Potency,[8],"inconclusive: 23.1 µM [cytotoxic, partial curve, poor fit]"
CCc1cc2c(s1)-n1c(C)nnc1CN=C2c1ccccc1Cl,Potency,[1],"inconclusive: 0.0266 µM [rising, full curve, poor fit]"
same,Potency,[8],inactive
C/C=C(\C)C(=O)O[C@H]1CC2C(=C1C)[C@H]1OC(=O)[C@](C)(O)[C@]1(O)[C@H](OC(=O)CCC)C[C@@]2(C)OC(C)=O (some centres not stated),Potency,[1],active: 0.563 µM
C[C@@H]1CN(C2CCC(C#N)(c3ccc(F)cc3)CC2)CC[C@]1(C(=O)O)c1ccccc1 (some centres not stated),Potency,[1],inactive
same,Potency,[8],inactive
NC(=O)CS(=O)C(c1ccccc1)c1ccccc1 (configuration not stated),Potency,[1],"inconclusive: 0.211 µM [rising, full curve, poor fit]"
same,Potency,[8],inactive
CN1CCC(N(Cc2ccccc2)c2ccccc2)CC1,Potency,[1],"inconclusive: 33.5 µM [cytotoxic, single point]"
same,Potency,[2],"inconclusive: 29.1 µM [cytotoxic, partial curve, poor fit]"
CC1(C)CC/C(=C/c2ccc(Cl)cc2)C1(O)Cn1cncn1 (configuration not stated),Potency,[1],"inconclusive: 21.5 µM [cytotoxic, partial curve]"
same,Potency,[8],"inconclusive: 50.1 µM [cytotoxic, single point]"
CC(C)CC(N(C)C)C1(c2ccc(Cl)cc2)CCC1 (configuration not stated),Potency,[1],"inconclusive: 33.5 µM [cytotoxic, partial curve, poor fit] and inconclusive: 18.6 µM [cytotoxic, partial curve]"
same,Potency,[3],"inconclusive: 2.09 µM [cytotoxic, full curve]"
same,Potency,[11],"inconclusive: 4.18 µM [cytotoxic, full curve]"
same,Potency,[2],"inconclusive: 35.5 µM [cytotoxic, single point]"
same,Potency,[8],"inconclusive: 32.6 µM [cytotoxic, single point] and inconclusive: 25.1 µM [cytotoxic, partial curve, poor fit]"
C=C1CC[C@@]2(O)[C@H]3Cc4ccc(O)c5c4[C@@]2(CCN3CC2CC2)[C@H]1O5,Potency,[1],inactive
same,Potency,[8],"inconclusive: 3.26 µM [rising, partial curve, poor fit]"
CNC(=O)N1N=C(c2ccc(N)cc2)c2cc3c(cc2CC1C)OCO3 (configuration not stated),Potency,[1],active: 2.31 µM
same,Potency,[5],"inconclusive: 18.7 µM [cytotoxic, partial curve]"
same,Potency,[6],"inconclusive: 16.6 µM [cytotoxic, partial curve]"
same,Potency,[3],"inconclusive: 18.7 µM [cytotoxic, partial curve]"
same,Potency,[4],active: 10.5 µM
